In the RNAGym collection of RNA variant scans (doi:10.7554/elife.90254):
The source gives no read counts; variants with many changes may rest on few reads.

B1: LINE1-mini (parent)
chain: GGCAGAGCUCAACACAGCGUGGCAAAGUGGCUGUGGCUAGACUGCC

Variants of: B1
Assay: self-cleavage, relative activity (ratio to wild type); higher = more cleavage; in vitro, sequencing; the parent is a self-cleaving ribozyme

Row | Variant | self-cleavage
1 | A12C G17C G19A G44C | 0.02
2 | A12G G29U G44A | 0.06
3 | A12C G19U G22A A39U | 0.01
4 | A12C U34G G35A U38C | 0.06
5 | A12G C18A C23A A25U | 0.02
6 | A12C G17C A24C C31A U38A | 0
7 | A12C G29U G33C G44C | 0
8 | A12G C13U U20A | 0.02
9 | A12C G27A G36U | 0.09
10 | A12C C15U A16G C45G C46G | 0.02
11 | A12G A16C G17A G22C U32A | 0.01
12 | A12G C15A A25C G36C A41U | 0.04
13 | A12G G35U C45A | 0.04
14 | A12C G27U U32C U38A G40A | 0
15 | A12G C23G U28A G36A | 0.01
16 | A12G A16U G17A | 0.27
17 | A12G G19U A24C C37G A41G | 0.01
18 | A12U A14G G33C U34A | 0.02
19 | A12G G30C G33U C42A G44C | 0.05
20 | A12G G19A G22A | 0.02
21 | A12G G27C G44U C46A | 0.02
22 | A12G G27U G40A | 0.06
23 | A12U A16C G19A U28A U38C | 0.02
24 | A12G G19A U32G G33U C42A | 0.13

Row | Variant | self-cleavage
25 | A12C G21C G40A | 0
26 | A12C C31A G44C | 0.06
27 | A12G G22U G33A | 0.11
28 | A12C C13A U20C | 0.02
29 | A12G C15A A26G C42A | 0.01
30 | A12C U20G G22A | 0
31 | A12C C18U U32C G33A C46A | 0.01
32 | A12C C18A G21A G29U A41C | 0.01
33 | A12C C18U U28G C31G | 0.01
34 | A12C C23U G35C C37G G40A C46U | 0
35 | A12G G17U G19C C31U G33C | 0.03
36 | A12G G17U C23G A41C | 0.02
37 | A12C C18G U20C G35A A41G | 0.02
38 | A12G G19U A26U C46U | 0.02
39 | A12G C37U G40U | 0.1
40 | A12C G40A C46G | 0.03
41 | A12G C13U G19A G27A G29U | 0.01
42 | A12G A16G G17C G40U | 0.01
43 | A12G A14U G27U G44A | 0.11
44 | A12U A14G U20G G29A | 0.11
45 | A12C G17U G19U G29A | 0.03
46 | A12G C13G G21U | 0.03
47 | A12C G17A C23G U38C | 0.01
48 | A12C C15A G19C U20A C37A | 0.01

Row | Variant | self-cleavage
49 | A12C G30A C37G | 0.01
50 | A12G C13U G17A G19U | 0.02
51 | A12G C13U G27U G33U G35A U38C G40A | 0.01
52 | A12G C18U G29U | 0
53 | A12U A14U G19A G29A G30C | 0.07
54 | A12G C18A C45G | 0.3
55 | A12C C23A A25U G27U G29U C37G | 0
56 | A12C C18G G27U G35A | 0.01
57 | A12U A16G U28C | 0.12
58 | A12G G19A C37U U38G | 0
59 | A12G C18U G19U C37U | 0.04
60 | A12G G21U A25G A26C U34A C37G G40A C42U | 0
61 | A12G G19A G29U U38C | 0.15
62 | A12C G27C A41U C42A | 0.02
63 | A12C C15A G22A U28G C42G | 0.04
64 | A12C U32C G35C | 0.03
65 | A12C G17C G21U C23U | 0.01
66 | A12C G29C U43G C46U | 0
67 | A12C C18U U34A | 0.03
68 | A12G C18A A25G | 0.03
69 | A12U A14G A24C G36A C37U G44U | 0
70 | A12C G27A A39U U43A | 0.02
71 | A12G C23G A24U A41C | 0.02
72 | A12G G17U C18A | 0.05

Row | Variant | self-cleavage
73 | A12G G30A C37A | 1.34
74 | A12C C13U G22A U43A | 0.01
75 | A12C C37U U43C | 0
76 | A12G G19C U20A G30U | 0.02
77 | A12U A14U C15U | 0.02
78 | A12G C18U G21U U43G C46A | 0.01
79 | A12G G22A A39C | 0.01
80 | A12C G27C U32A G36C | 0.01
81 | A12C G17U G27A U34C A41G | 0.55
82 | A12G C13G U28A | 0.01
83 | A12G C13A G36U A41C C42U | 0.02
84 | A12G C13A G36U C42U | 0.04
85 | A12G G21U U28A | 0.02
86 | A12G C18A G36C | 0.05
87 | A12C G29U G35U C45A | 0.02
88 | A12C G30C U34C | 0
89 | A12G C15U G27C G29U C31U G36U | 0.02
90 | A12C G27A G30A C37U | 0
91 | A12C G30U G40U | 0.06
92 | A12G U34A C42U | 0.19
93 | A12G A16C G21U G30A C42U | 0.1
94 | A12C C15A G44U C45A | 0.01
95 | A12G U20C G27C | 0
96 | A12G A14U A25U U38G | 0.01

Row | Variant | self-cleavage
97 | A12G U34G C46G | 0.03
98 | A12C C23A U28A C31A | 0.01
99 | A12C C15U G33U G40A | 0.06
100 | A12C G22A A26U G40C | 0
101 | A12G G17A C31A G33U | 0.07
102 | A12G C13G A39U | 0
103 | A12G C23A G27U G30C | 0.08
104 | A12U A14G G19C U38A | 0.01
105 | A12G A39C G44A C45G | 0.02
106 | A12G C18A G27C G33U C45U | 0.13
107 | A12G A14U C15A C42U | 0.07
108 | A12G C23A U28A A39U | 0.01
109 | A12C G22A G27A G36U A41C C46G | 0.01
110 | A12U A14U A41C | 0.05
111 | A12G C13A G17C C42U | 0.01
112 | A12C G27C A39C | 0.01
113 | A12C G33A U43A | 0.01
114 | A12C C37G C46A | 0
115 | A12C C15G U20A G27U U38A | 0
116 | A12C C15G A41U | 0.01
117 | A12C C15U C31G | 0.01
118 | A12C G30U G33U A39U | 0.06
119 | A12C U32A A39U | 0.06
120 | A12G G35A A39G | 0.03

Row | Variant | self-cleavage
121 | A12G G17C U20A C23U A25C U28C G33C G40U | 0.05
122 | A12C C18U U28G | 0.02
123 | A12C G22A U38G | 0.01
124 | A12G G17U A26U | 0.05
125 | A12C C23U C37A | 0.02
126 | A12C G17A C18A G21A A26G G33U | 0
127 | A12C C31A G36C | 0
128 | A12G C18U G22U A39U | 0.02
129 | A12U A14U C18G A39G A41U | 0.04
130 | A12C G29U A39G | 0
131 | A12C C15A C23A U32C G44A C45U | 0.04
132 | A12G G19C C37A G40A | 0
133 | A12G G17A C18A G22A G40A | 0.02
134 | A12U A14C A16G | 0.03
135 | A12C C23A A41C | 0.02
136 | A12C G21U U34G G35U | 0.01
137 | A12C C13U U28A | 0.04
138 | A12G C23A A25U U34G | 0.02
139 | A12G G17A G40A | 0.02
140 | A12G G17C C45U | 0.01
141 | A12C G29C G30C | 0.03
142 | A12C C15A G19U G40A | 0.01
143 | A12U A16G U20C A24G A26C C37U | 0.01
144 | A12G G17A G29U | 0.07

Row | Variant | self-cleavage
145 | A12G A14G U20C C23U | 0.01
146 | A12G G19U U43A | 0.01
147 | A12G G29C A41C | 0.04
148 | A12C U32A G40U | 0.01
149 | A12G A16G G29C | 0.18
150 | A12G C15G G17A U43A | 0.17
151 | A12G A41U G44A | 0.03
152 | A12G C13G C37A | 0.04
153 | A12G G17C C18A A41G C46U | 0.01
154 | A12C G35C A39G | 0.03
155 | A12C C18A C37U | 0.01
156 | A12G G22U A25G G33U U43C | 0.01
157 | A12G G35U C37A C45A | 0.04
158 | A12G C23A U32A | 0.03
159 | A12G C15U G44C | 0.03
160 | A12C G35U U38A A39G | 0.01
161 | A12G U20A C46U | 0.02
162 | A12C G22A G30U | 0.01
163 | A12C G27U C46A | 0.03
164 | A12G C23U C45G C46A | 0.04
165 | A12G C15U G22A | 0
166 | A12C C15G G21C C23G G44A | 0.04
167 | A12G C15A G29A G44U | 0.04
